Experimental data reported in the supplement of paper PMC10126150.
Sequences with one replicate were seen in a single cluster, so their values are uncertain.

Tested on: ATP
Experiment: switch fluorescence ratio, 500 uM ATP over buffer (Cy3 cluster intensity, sum of 5 cycles each) (fold (ratio)); higher = stronger signal-on switching upon ATP binding; sequences stand for … in TCGTCGGCAGCGTCAGATGTGTATAAGAGACAGTTTTTTTTTTTTTTTTTTTTTTTTT…TC
Settings: aptamer strand: ATP DNA aptamer (quencher-CACCTGGGGGAGTATTGCGGAGGAAGG + anchor), 100 nM annealed; ATP concentration: 500 uM; one replicate
In short: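 Between each of five buffer/ATP cycles, the flow-cell was stripped with NaOH and re-annealed. Each cycle imaged Cy3-labelled switching-strand clusters, annealed to 100 nM quencher-labelled ATP aptamer on a modified Illumina MiSeq flow-cell, first in selection buffer and then after 15 min with 500 uM ATP at 22 °C. The fluorescence ratio is summed target-cycle over summed buffer-cycle Cy3 intensity per cluster, averaged per switch-domain sequence, with clusters outside 100-1000 RFU excluded.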
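Also: ATP exposure 15 min at 22 °C before imaging.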

Sequence	switch fluorescence ratio
CCATATCGAT	1.04
CCATCATACC	1.08
CCATCCTACG	2.91
CCATCCTTCG	2.54
CCATCGTGTT	0.987
CCATCTTCAG	1
CCATGAGAGA	1
CCATGCGCTG	1.25
CCATGGAAAG	1.01
CCATGTCTAG	1.03
CCATGTTTTT	1.05
CCATTCAAG	1.01
CCATTCGAAC	1.07
CCATTCTAAG	1.01
CCATTTTTGA	0.999
CCCAAAATTT	0.954
CCCAAAGCCT	1.33
CCCAAAGTGC	1.66
CCCAACAACA	1.01
CCCACGCTT	4.04
CCCACTACCA	1.18
CCCAGAATGC	1.63
CCCAGAATTG	1
CCCAGACTAC	1.55
CCCAGGTTCT	1.88
CCCAGTCCTC	1.1

Sequence	switch fluorescence ratio
CCCAGTGACG	1.11
CCCAGTTGGT	1.14
CCCATAGAAA	1.01
CCCATCGTCT	1.05
CCCATTCCCT	1.06
CCCATTCGGG	0.963
CCCATTTAG	0.979
CCCCAACCAT	1
CCCCAAGCGA	4.6
CCCCAATAT	4
CCCCACTCAA	1.28
CCCCAGTAGT	2.35
CCCCCAAGA	1.79
CCCCCAGATT	1.84
CCCCCATGGA	1.91
CCCCCCCCGA	1.1
CCCCCTTCGC	1.98
CCCCGAACGA	1.21
CCCCGATAGG	1.03
CCCCGTCGGA	1.06
CCCCGTGTGG	1.13
CCCCTAAAGC	1.02
CCCCTCCCTT	1.11
CCCCTGACC	1.15
CCCCTGGAAC	0.986
CCCCTTGAGT	1.01

Sequence	switch fluorescence ratio
CCCGAGCGAA	2.46
CCCGATCAAT	1.72
CCCGATTTAT	1.08
CCCGCAAATT	4.9
CCCGGACTAG	1.04
CCCGGAGGTG	2.39
CCCGGAGTGG	1.05
CCCGGCTGAA	1.05
CCCGGCTTCT	1.03
CCCGGGCTGC	1.15
CCCGGTGAGC	1.07
CCCGTAGAGG	1.02
CCCGTCGAGC	1.11
CCCGTTACTA	1.08
CCCGTTTAAC	1.27
CCCTAAAAAG	1.03
CCCTACTTCA	1.07
CCCTCCGAGT	3.3
CCCTCCTGTT	1.74
CCCTCGTGAC	1.62
CCCTCTAAGG	1.06
CCCTCTATAA	1.12
CCCTGACCTA	1.1
CCCTGAGACC	0.986
CCCTGATGAG	0.992
CCCTGGGCAA	3.77

Sequence	switch fluorescence ratio
CCCTGTAAGG	1.02
CCCTGTCTGG	1.02
CCCTGTTAGC	1.19
CCCTTAGTTA	1.01
CCCTTGTACA	1.07
CCCTTTGAAT	0.97
CCCTTTTCGT	0.999
CCCTTTTT	1.08
CCGAATCGGC	1.18
CCGAATCTGT	1.04
CCGACGGGGA	4.23
CCGACTTAGG	1.05
CCGAGACTTA	1.25
CCGAGATGAG	1.08
CCGAGCCGTC	1.06
CCGAGGCGGA	1.81
CCGAGGGAGT	1.6
CCGAGGGGT	1.14
CCGAGTCCAA	3.78
CCGATCACTG	1.1
CCGATCGTGT	1.92
CCGATCTATC	2.08
CCGATCTCTG	1.09
CCGATCTGAA	1.07
CCGATGATGG	1.14
CCGATGGAAA	1.1

Sequence	switch fluorescence ratio
CCGATGGAAG	1.22
CCGATTTTCG	1.02
CCGCACAGGT	3.67
CCGCAGACCA	5.01
CCGCATTAAA	5.3
CCGCCCCGTG	1.47
CCGCCTACAC	3.56
CCGCCTAGTG	1.57
CCGCGAACAG	2.57
CCGCGACGAG	2.32
CCGCGATTGT	6.35
CCGCGCGGTT	1.04
CCGCGGAAG	1.04
CCGCGGACAT	1.02
CCGCGTCAAT	3.9
CCGCGTGTGA	1.06
CCGCGTTAA	3.06
CCGCTCCAGG	1.66
CCGCTCGGGA	1.49
CCGGACCGAA	1.07
CCGGAGAATG	2.42
CCGGAGCCGT	1.28
CCGGAGTCCG	1.1
CCGGATAGTT	0.998
CCGGATGATG	1.02
CCGGCATTAG	4.27

Sequence	switch fluorescence ratio
CCGGCGCCAT	2.92
CCGGCGTAGC	1.01
CCGGCGTTGA	1.13
CCGGCTGC	1.22
CCGGCTTATA	1.13
CCGGCTTCTG	0.988
CCGGCTTGGG	1.02
CCGGGACTAC	3.9
CCGGGACTTC	1.16
CCGGGAGACA	1.16
CCGGGATAAG	1.01
CCGGGCCCCT	1.02
CCGGGGAAAA	1.3
CCGGGGATCT	1.08
CCGGGGGG	0.997
CCGGGGGGT	1.03
CCGGGGTGCA	1.28
CCGGGTACAA	1.79
CCGGGTATAG	1.55
CCGGGTATCG	1
CCGGGTATTT	1.04
CCGGGTTTCT	1.12
CCGGTAAAAG	1.03
